PubChem BioAssay AID485313 (National Center for Advancing Translational Sciences (NCATS), 2010)
In all, about 320,000 compounds went through this assay and about 7,600 (2.4%) were called active. Inconclusive results, whose numbers are uncertain, are shown with a selection of clear calls. Calls follow the shape of the dose curve; as a rule, active = well fitted activation curve with a large enough effect; inconclusive = small, poorly fitted or top-dose-only effect; inactive = no such curve, though single readings can be large or run the other way. Potencies of inconclusive entries are left out as doubtful fits.
Potency is read from the fitted curve at half-maximal effect; tags tell the direction and shape of the fitted curve.

Assay: qHTS Assay for NPC1 Promoter Activators; also: nearly all actives have a fitted effect of over 60% in size;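 as to activation: reporter is driven by a mutant NPC1 promoter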
Conditions: Huh7 NPC1 promoter luciferase reporter, 24 h; series mostly up to 9.22 µM
Method in brief: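 Cells: Huh7 expressing luciferase under the NPC1 promoter, 1500/well. Seeded 2 h, compound added, incubated 24 h at 37 °C. Luciferase reagent, 10 min ambient, then luminescence.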
With `COCCNC(=O)c1ccc(-c2csc(C)n2)cc1` the Potency was inconclusive [activator, single point].
With `CC(=O)/C(N=Nc1cc(C)ccc1O)=C(\C)O` the Potency was “inactive”.
For `Cc1nc(NC(=O)CN2CCOCC2)sc1-c1ccccc1`, the Potency was inconclusive [activator, partial curve].
In the case of `Nc1c(C(=O)Nc2ccc(Cl)c(C(=O)O)c2)sc2nc3c(cc12)CCCC3`, the Potency is reported as inconclusive [activator, partial curve].
With `CC(=O)c1c(C)[nH]c(C(=O)Nc2ccc(Cl)cc2)c1C` the Potency was active: 3.16 µM.
With `Cc1ccc2nc(-c3ccc(NC(=O)CNC4CC4)cc3)sc2c1` the Potency was active: 0.631 µM.
For `CCOc1ccc(-c2cn3ccccc3n2)cc1`, the Potency was inconclusive [activator, partial curve, poor fit].
In the case of `O=C(Nc1ccc(F)cc1)Nc1nnc(-c2ccco2)s1`, the Potency is reported as inconclusive [activator, partial curve].
For `COc1cccc(C(=O)O/N=C(\N)c2ccc(C)cc2)c1`, the Potency was active: 3.16 µM.
With `Cc1nc(NC(=O)CSc2ccc(-c3nc4ccccc4[nH]3)cn2)sc1C` the Potency was inconclusive [activator, single point].
For `CCN(CC)C(=O)CSc1nnc(-c2ccco2)o1`, the Potency was “inactive”.
For `O=c1c2ccccc2nc(COc2ccccc2)n1/N=C/c1ccc(O)c(O)c1`, the Potency was “inactive”.
In the case of `CC(C)[C@@H]1COC(c2cccc(C3=N[C@H](C(C)C)CO3)c2)=N1`, the Potency is reported as inconclusive [activator, single point].
With `Cc1ccc(-n2nc(C)c(NC(=O)CCl)c2C)cc1` the Potency was “inactive”.
For `CCCN1C(=O)S/C(=C\c2ccc(N3CCOCC3)cc2C)C1=O`, the Potency was active: 2 µM.
With `CCC(NC(=O)Cc1c(C)c2cc3c(cc2oc1=O)OC(C)(C)CC3)C(=O)O` (stereo not drawn) the Potency was active: 3.16 µM.
For `O=C(CCc1cccc(Cl)c1)NC1CCCN(Cc2ccccc2F)C1` (stereo not drawn), the Potency was inconclusive [activator, single point].
With `CCOC(=O)c1ccc(N=NN(C)C)cc1` the Potency was inconclusive [activator, single point].
With `CS(=O)(=O)N1CCc2nc(-c3ccccc3)sc2C1` the Potency was active: 2.51 µM.
In the case of `Nc1nc2ccc(NC(=O)c3ccco3)cc2s1`, the Potency is reported as inconclusive [activator, partial curve].
For `CCN1C(=S)SC(=O)C1=C1C=C(C)N(Cc2ccco2)C(C)=C1`, the Potency was active: 1.41 µM.
For `CC(=O)N/C(N)=N/c1nc(=O)c2ccccc2s1`, the Potency was inconclusive [activator, partial curve].
With `Nn1c(COc2ccccc2)nc2ccccc2c1=O` the Potency was inconclusive [activator, partial curve].
In the case of `C(=C\c1ccccc1)/CSc1ccccn1`, the Potency is reported as inconclusive [activator, single point].
In the case of `O=c1cc(-c2ccc(O)cc2)oc2ccc(O)cc12`, the Potency is reported as inconclusive [activator, single point].
In the case of `CCOc1ccc(CCNC(=O)c2ccc(CS(=O)Cc3ccccc3Cl)o2)cc1` (stereo not drawn), the Potency is reported as “inactive”.
In the case of `COc1ccc(OCc2cc(C(=O)N3CCCC(OC)C3)no2)c2ccccc12` (stereo not drawn), the Potency is reported as inconclusive [activator, partial curve].
In the case of `Cc1cc(NC2CCCC2)n2ncc(-c3ccccc3)c2n1`, the Potency is reported as inconclusive [activator, partial curve].
For `COc1ccc(/C=C/C(=O)Oc2cccc(/C=N/NC(=O)c3cccc(F)c3)c2)cc1`, the Potency was active: 3.55 µM.
With `O=C(N=Nc1c(O)[nH]c2ccccc12)c1ccco1` the Potency was active: 3.55 µM.
With `O=C(Nc1ccccc1F)c1ccc(-c2cccc([N+](=O)[O-])c2)o1` the Potency was inconclusive [activator, partial curve].
For `Cc1nc(SCC(=O)c2cccs2)c2oc3ccccc3c2n1`, the Potency was inconclusive [activator, single point].
In the case of `N/C(=N\OC(=O)c1cccs1)c1ccccc1`, the Potency is reported as inconclusive [activator, single point].
With `O=c1c(Cl)c(Nc2cccc(Cl)c2)cnn1-c1nc2ccccc2s1` the Potency was inconclusive [activator, single point].
In the case of `COc1ccc(-c2cc3c(=O)n(CC(=O)NCCCN4CCC(N5CCCCC5)CC4)ncn3n2)cc1`, the Potency is reported as inconclusive [activator, partial curve, poor fit].
With `Fc1ccc(F)c(C2=NNC(=NCC3CCCO3)SC2)c1` (stereo not drawn) the Potency was inconclusive [activator, partial curve].
For `Cc1ccc(-c2csc(Nc3ccccn3)n2)cc1`, the Potency was active: 0.708 µM.
In the case of `Cc1cc(OCc2nc3ccccc3s2)ccc1N`, the Potency is reported as active: 1 µM.
For `C/C(N)=C(/C#N)C(=O)CSc1ccccc1F`, the Potency was inconclusive [activator, single point].
For `OCc1ncc(-c2ccccc2)s1`, the Potency was “inactive”.
In the case of `Cc1ccc(/C=N/Nc2nc3ccccc3s2)o1`, the Potency is reported as inconclusive [activator, single point].
With `COc1ccc(CSc2nc3ccccc3[nH]2)cc1` the Potency was active: 0.398 µM.
With `COC1=C(Nc2ccc(C)cc2)C(=O)c2ccccc2C1=O` the Potency was inconclusive [activator, single point].
With `Cc1csc(-c2coc3cc(O)cc(C)c3c2=O)n1` the Potency was inconclusive [activator, partial curve].
For `Cc1ccc2nc(NC(=O)c3cccs3)sc2c1`, the Potency was active: 0.501 µM.
In the case of `Cc1cc(C)c(NC(=O)c2ccoc2C)c(C)c1`, the Potency is reported as “inactive”.
In the case of `Cn1c(=O)n(Cc2ccccc2F)c2ccccc21`, the Potency is reported as inconclusive [activator, single point].
For `CCCCOC(=O)Nc1ccc(C(=O)OC)cc1`, the Potency was inconclusive [activator, partial curve].
With `Nc1ccc(-c2nc3cc([N+](=O)[O-])ccc3o2)cc1` the Potency was active: 1.41 µM.
With `COC(=O)C1=C(C)NC2=C(C(=O)c3ccccc32)C1c1cccc(OC)c1` (stereo not drawn) the Potency was “inactive”.
In the case of `O=C(Nc1ccc2c(c1)OCO2)c1ccc2nc[nH]c2c1`, the Potency is reported as inconclusive [activator, partial curve].
For `COc1ccc(C(=O)N=c2sccn2C)cc1`, the Potency was inconclusive [activator, partial curve].
For `CC(=O)N1N=C(c2ccc(C)cc2)CC1c1ccc2c(c1)OCO2` (stereo not drawn), the Potency was active: 2.82 µM.
In the case of `c1ccc2c(c1)CCc1c(-c3ccncc3)n[nH]c1-2`, the Potency is reported as inconclusive [activator, partial curve].
In the case of `Cc1cccc(C(=O)c2c(N)sc3c2CCCC3)c1`, the Potency is reported as “inactive”.
In the case of `Cc1ccc(N2CC(C(=O)Nc3ccccc3C(=O)N3CCOCC3)CC2=O)cc1` (stereo not drawn), the Potency is reported as “inactive”.
With `O=C1C(C=NCc2ccccn2)=C(O)c2ccccc21` the Potency was active: 2.24 µM.
With `Cc1noc(/C=C/Nc2ccc(F)cc2F)c1[N+](=O)[O-]` the Potency was inconclusive [activator, single point].
In the case of `Cc1cccc(C(=O)O/N=C(\N)c2cccc([N+](=O)[O-])c2)c1`, the Potency is reported as inconclusive [activator, single point].
In the case of `O=C(/C=C/c1ccc(Cl)cc1)N1CCOCC1`, the Potency is reported as inconclusive [activator, partial curve].
With `O=C(NCc1ccc2c(c1)OCO2)c1ccc(Cl)s1` the Potency was “inactive”.
With `Cc1ccc(SCc2nc(-c3ccccn3)no2)cc1` the Potency was inconclusive [activator, partial curve].
In the case of `O=C(Nc1ccc(F)cc1F)c1ccc2c(c1)OCCO2`, the Potency is reported as active: 0.501 µM.
With `O=C(CCC1CCCCC1)Nc1ccccc1O` the Potency was inconclusive [activator, single point].
For `COc1ccc(/C=C/C(=O)CCC(=O)O)cc1`, the Potency was inconclusive [activator, single point].
In the case of `Cc1nnc(NC(=O)c2ccc3ccccc3n2)s1`, the Potency is reported as inconclusive [activator, single point].
For `CN(C)Cc1c(-c2ccc(Cl)cc2)nc2ccccn12`, the Potency was inconclusive [activator, single point].
With `Cc1ccc(-c2noc(C3CCCN(C(=O)c4ccccc4Br)C3)n2)o1` (stereo not drawn) the Potency was inconclusive [activator, partial curve].
In the case of `O=C(CSc1ncnc2ccccc12)c1ccc2c(c1)OCCO2`, the Potency is reported as inconclusive [activator, partial curve].
In the case of `O=C(Nc1ccccc1O)c1ccc(C(=O)c2ccccc2)o1`, the Potency is reported as inconclusive [activator, single point].
For `Cc1cccc(NC(=O)C(=O)NCc2ccccn2)c1`, the Potency was inconclusive [activator, partial curve].
With `O=C(CC1C(=O)NCCN1Cc1ccc(F)c(F)c1)NCCCn1ccnc1` (stereo not drawn) the Potency was “inactive”.
With `O=C(Cc1n[nH]c(=O)c2ccccc12)OCC(=O)c1ccc(F)cc1` the Potency was “inactive”.
For `c1ccc2c(-c3nc(-c4ccncc4)no3)cccc2c1`, the Potency was inconclusive [activator, single point].
For `COC(=O)Nc1nc2ccc(C(=O)c3cccs3)cc2[nH]1`, the Potency was inconclusive [activator, partial curve, poor fit].
In the case of `CC1CCN(c2oc(-c3cccc4ccccc34)nc2C#N)CC1`, the Potency is reported as inconclusive [activator, single point].
For `Cc1cc(C)[n+]2[nH]c(N)c(N=Nc3ccccc3)c2n1`, the Potency was “inactive”.
In the case of `NS(=O)(=O)c1ccc(CNc2ccc3ccccc3n2)cc1`, the Potency is reported as inconclusive [activator, partial curve].
